Source: PubChem BioAssay AID1159614 (National Center for Advancing Translational Sciences (NCATS), 2016)
About 65 (0.1%) of roughly 45,000 compounds were called active. Calls follow the shape of the dose curve; as a rule, active = well fitted activation curve with a large enough effect; inconclusive = small, poorly fitted or top-dose-only effect; inactive = no such curve, though single readings can be large or run the other way. Some of the results follow.

biological target: Galactocerebrosidase (Homo sapiens) (UniProt P54803); assay: A Novel Cell-Based Assay to Identify Small Molecules for B -Galactocerebrosidase; details: 145M-Twi-hGALC-G270D cells (Twitcher mouse brain line with human GALC G270D), HMU-beta-Gal fluorescence, 48 h; series mostly up to 57.5 µM; activation: at the top concentration; also: 0% is about no effect; nearly all actives have a fitted effect of over 65% in size
UniProt P54803, sequence (P54803 whole entry, looked up): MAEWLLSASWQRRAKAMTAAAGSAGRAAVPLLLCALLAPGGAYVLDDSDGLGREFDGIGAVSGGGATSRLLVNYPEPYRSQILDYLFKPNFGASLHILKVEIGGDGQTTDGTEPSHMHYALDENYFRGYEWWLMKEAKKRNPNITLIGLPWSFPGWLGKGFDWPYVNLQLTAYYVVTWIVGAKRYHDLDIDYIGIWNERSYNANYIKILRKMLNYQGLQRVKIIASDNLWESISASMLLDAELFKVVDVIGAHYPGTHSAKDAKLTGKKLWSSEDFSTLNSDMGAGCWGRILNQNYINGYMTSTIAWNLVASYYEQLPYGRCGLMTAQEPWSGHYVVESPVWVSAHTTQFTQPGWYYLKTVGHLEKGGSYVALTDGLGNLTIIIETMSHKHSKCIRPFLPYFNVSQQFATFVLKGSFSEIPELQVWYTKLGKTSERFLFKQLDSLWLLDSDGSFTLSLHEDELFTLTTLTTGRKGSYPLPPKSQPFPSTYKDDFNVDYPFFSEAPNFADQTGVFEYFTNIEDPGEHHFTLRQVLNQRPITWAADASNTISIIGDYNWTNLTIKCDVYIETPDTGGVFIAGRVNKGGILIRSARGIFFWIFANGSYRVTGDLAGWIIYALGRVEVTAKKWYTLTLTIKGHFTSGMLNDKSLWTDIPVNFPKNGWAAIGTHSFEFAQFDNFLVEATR
In short: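 Fluorogenic HMU-b-Gal hydrolysis (0.1 mM final, pH 5.2 citrate-phosphate with 1 mg/mL sodium taurocholate; carbonate stop buffer) measures mutant GALC activity after compound treatment of live 145M-Twi Twitcher brain cells stably carrying human GALC-G270D, with wild-type GALC line alongside; activation sought.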

activation, inactive:
COc1cc(-c2noc(-c3ccc(NCc4cccnc4)c([N+](=O)[O-])c3)n2)cc(OC)c1OC -6.66%
COc1ccc(OC)c(CNC(=O)CCCn2ccc3cc(S(=O)(=O)N4CCCC4)ccc32)c1 9.79%
Cc1ccc(NC(=O)c2cnc(SCC(=O)N3CCOCC3)n(C)c2=O)cc1 -14.4%
CCc1ccc(CNC(=O)c2cccc(-n3cnc4cccnc43)c2C)cc1 -11.8%
CCOc1ccc(OCC)c(NC(=O)Cn2ncc3c4ccccc4n(Cc4ccccc4)c3c2=O)c1 1.57%
Cn1ccc2cc(S(=O)(=O)N3CCCN(C(=O)Nc4ccccc4Br)CC3)ccc21 -1.97%
CCC1CN(C(=O)N2CCC(C(=O)NCCN(C)C)CC2)c2ccccc2O1 (stereo not drawn) 2.21%
CN(c1ccc(Cl)cc1)S(=O)(=O)c1nnc(NC(=O)C2CCCCC2)s1 5.83%
COc1cccc(NC(=O)CN(C)S(=O)(=O)c2ccc3nc(C)sc3c2)c1 -8.31%
COc1ccc(C)cc1N(C)C(=O)c1c(C)oc2ncnc(N3CCOCC3)c12 -6.02%
CCOc1ccccc1NC(=O)c1c(NC(=O)c2ccccc2C)sc2c1CCC(C)C2 (stereo not drawn) -11.5%
CCNC(=O)c1cnc2sc(N3CCCCCC3)nn2c1=O -8.47%
COC(=O)c1c(C)sc(-c2c(-c3ccc4c(c3)OCCO4)[nH]c3c2c(=O)n(C)c(=O)n3C)c1O -6.69%
COc1cc(C(=O)Oc2c(Sc3ccc(C)cc3)c(C)nn2-c2ccccc2)cc(OC)c1OC -8.1%
Cc1ccc2c(c1)cc(C(=O)Nc1ccc(F)cc1F)n2C -17.5%
Cc1cccc(NC(=O)C2CCCN(S(=O)(=O)c3cnc[nH]3)C2)c1C (stereo not drawn) -34.9%
Cc1ccn2c(Nc3ccc4c(c3)OCCO4)c(-c3ccc(Cl)s3)nc2c1 -9.14%
CN(C1CCCCC1)S(=O)(=O)c1ccc2c(c1)c(=O)c(C(=O)NCCc1ccccc1)cn2C -22.6%
O=C(NCCc1ccc(Cl)cc1)c1ccc(CS(=O)Cc2cccc(Cl)c2)o1 (stereo not drawn) -19.3%
CCC(C)NC(=O)c1cnn(-c2ccc(Cl)cc2)c1C1CCN(C(=O)OC(C)(C)C)CC1 (stereo not drawn) -8.45%
COC(=O)c1n[nH]n(-c2ccccc2)c1=O -14.6%
Nc1nnc(SCC(=O)Nc2ccccc2C(F)(F)F)s1 -2.36%
Cn1c(=O)c2cc(C(=O)N3CCN(c4ccc(Cl)cc4)CC3)sc2c2ccccc21 -12.7%
Cc1ccc(C(=O)N(Cc2ccc(N(C)C)cc2)Cc2ccco2)cc1 -3.98%
CCOC(=O)c1cc(NC(=O)c2ccc(F)cc2)c(=O)n2c1oc1ccccc12 14.2%
Cc1oc(-c2ccc(C(=O)Nc3cc(F)ccc3F)cc2)nc1COc1ccccc1 12.4%
Cc1ccc2c(c1)C(c1ccccc1)N(C(=O)Cc1ccc(F)cc1)CC(=O)N2 (stereo not drawn) -3.62%
Cc1cc(C)n(-c2nnc(Nc3ccc(C)c(Cl)c3)c3ccccc23)n1 10.5%
Cn1c(=O)[nH]c2cc(-c3noc(-c4ccc(C#N)cc4)n3)ccc21 -17.3%
CCCS(=O)(=O)NCCc1sc2nc(-c3ccc(F)cc3)nn2c1C -7.73%
COc1cc(C2Nc3c(C)cc(C)cc3-c3cc(C)nn32)cc(OC)c1O (stereo not drawn) 4.63%
O=C(c1cccn1-c1nnc(N2CCCC2)s1)N1CCN(c2ccc(Cl)cc2)CC1 -24.7%
O=C(COc1ccc2ccccc2c1)NC1CC(=O)N(c2cccc(F)c2)C1 (stereo not drawn) -14.8%
CC1=C(C(=O)Nc2ccc(Cl)cc2)C(CC(C)C)n2nc(SCc3ccccc3C)nc2N1 (stereo not drawn) -13%
Cc1ccc(S(=O)(=O)Nc2nc3n(n2)C(c2ccc(F)cc2)C=C(c2ccccc2)N3)cc1 (stereo not drawn) -6%
Nc1nc2ccc([N+](=O)[O-])cc2s1 -13% [at 114 µM]
CC(=O)Nc1ccc(S(=O)(=O)NCC2CCC(C(=O)NCCN(CC(C)C)CC(C)C)CC2)cc1 (stereo not drawn) -9.97%
CN(C)C(=O)c1c(NC(=O)c2ccccc2F)sc2c1CCCC2 -14.1%
COc1ccc(C2=NC(C)(C)N(CC(=O)Nc3cccc(C)c3)C2=O)cc1 -14.2%
COc1ccc(Cn2c(C(=O)O)c(CNCCc3cc(OC)ccc3OC)c3ccc(C)cc32)cc1 -17.8%
CCCCCCCC(=O)[O-].CCCCCCCC(=O)[O-].[Zn+2] -14.4%
COc1ccccc1CNS(=O)(=O)c1cnc(N)nc1 -3.85%
COc1ccc(C2c3c(n(C)c4ccccc34)C(=O)N2CC(=O)Nc2cccc(F)c2)cc1 (stereo not drawn) -16%
O=c1oc2ccc3ccccc3c2cc1-c1nnc(Nc2ccc(F)cc2)s1 2.8%
CCCc1cc(=O)[nH]c2nnc(SCC)n12 -12.4%
Cc1ccc(N2CC(C)Cn3c2nc2c3c(=O)n(Cc3cccc(Cl)c3)c(=O)n2C)cc1 (stereo not drawn) -6.72%
COc1ccc(NC(=O)c2oc3ccc(S(=O)(=O)N4CCOCC4)cc3c2C)cc1 15.2%
O=C(NCC(c1ccco1)S(=O)(=O)c1cccs1)c1ccccc1F (stereo not drawn) 0.885%
COc1cccc(CNc2cc(C)nc3nc(-c4ccc(C)cc4)nn23)c1 -28.2%
NS(=O)(=O)c1cc2c(cc1C(F)(F)F)NC(Cc1ccccc1)NS2(=O)=O (stereo not drawn) -14.1%
Cc1ccc(Cl)cc1N1CCN(CCCNC(=O)c2ccc3nc(N4CCCCC4)sc3c2)CC1 -6.02%
Cc1ccc(-n2nc3c(=O)n(C(C)C(=O)NCc4ccco4)nc(C)c3c2C)cc1 (stereo not drawn) -8.67%
O[C@@H](c1cc(C(F)(F)F)nc2c(C(F)(F)F)cccc12)[C@H]1CCCCN1 -6.71%
COC(=O)CC1Oc2ccc(Cl)cc2-n2cc(-c3ccccc3)nc21 (stereo not drawn) 4.45%
Oc1c(C(c2ccccc2)N2CCC(O)CC2)sc2nc(-c3ccco3)nn12 (stereo not drawn) -19%
CCn1ccc2c(OCC(=O)Nc3ccccc3C(F)(F)F)cccc2c1=O -7.37%
O=C(NC1(C(F)(F)F)NC(=O)N(CCc2ccccc2)C1=O)c1ccc(Cl)cc1 (stereo not drawn) -3.95%
COc1ccc(NS(=O)(=O)c2ccc3[nH]c4c(c3c2)CCCC4)cc1OC -8.86%
CCOc1ccc(CCNC(=O)c2cnc3sc(N4CCCC4)nn3c2=O)cc1 -5.58%
CC1N=C2c3ccccc3N=C(SCC(=O)NCCc3ccccc3)N2C1=O (stereo not drawn) -30.3%
COc1ccc(Nc2c3c(nc4ccc(NC(=O)c5ccc(F)cc5)cc24)CCCC3)cc1OC -22.2%
CN(Cc1ccccc1)C(=O)c1nc(-c2ccc(Cl)cc2)n2c1CCCCC2 -17.9%
Cc1ccc(C)c(NC(=O)c2ccc(CN3CC(=O)N4CCCCC4C3=O)cc2)c1 (stereo not drawn) -23.6%
CCn1c(CN2CCCCC2)nc2cc(NC(=O)c3cc(OC)c(OC)c(OC)c3)ccc21 -19.7%
CCOC(=O)C(C)Sc1ccc2nnc(CCNS(=O)(=O)c3ccccc3)n2n1 (stereo not drawn) -11.5%
CC(=O)Nc1ccc(NC(=O)c2ccc3c(c2)N(Cc2cccc(Cl)c2)C(=O)c2ccccc2S3(=O)=O)cc1 -13.6%
Cc1cccc(Cn2cccc2CNS(=O)(=O)c2ccc(Br)cc2)c1 -6.97%
COc1ccc(-c2cc3ccc(O)c(CN4CCC(C)CC4)c3oc2=O)cc1OC -9.86%
COc1cc(-c2nnc(SCCOc3cc(C)cc(C)c3)o2)cc(OC)c1OC 15.2%
CC(CN1c2ccccc2Sc2ccccc21)N(C)C (stereo not drawn) -6.54%
Cc1cc(OC(C)C(=O)Nc2sc3c(c2C(N)=O)CCCC3)ccc1Cl (stereo not drawn) -6.77%
CC(NC(=O)CN1C(=O)c2cccnc2Oc2ccc(Cl)cc21)c1ccccc1 (stereo not drawn) -7.66%
COc1ccc(S(=O)(=O)Nc2cc(S(=O)(=O)c3ccccc3)c(O)c(C)c2C)cc1 -14.2%
Cc1ccccc1CN1C(=O)c2ccccc2S(=O)(=O)c2ccc(C(=O)OCC3CCCO3)cc21 (stereo not drawn) 2.46%
Cc1ccc(C(C)C)c(OC(C)C(=O)NCC2(N(C)C)CCCCC2)c1 (stereo not drawn) -3.83%
Cc1ccc(Cn2c(C(C)NC(=O)c3ccccc3)nc3ccccc32)cc1 (stereo not drawn) -27.2%
O=C(NCCCN1CCN(c2ccccc2)CC1)c1ccc2nc(Cc3ccccc3)oc2c1 -14.2%
CNC(=O)c1ccccc1Sc1ccc2c(/C=C/c3ccccn3)n[nH]c2c1 -6.92%
CCOc1ccccc1CNc1nc2nc(C)cc(C)n2n1 -9.92%
CCC1CCCCN1C(=O)CSc1nc2c([nH]c3ccccc32)c(=O)n1-c1ccc(OC)cc1 (stereo not drawn) 13%
Cn1ccc2cc(S(=O)(=O)N3CCN(C(=O)Nc4ccc(F)cc4F)CC3)ccc21 -0.271%
CC(C)NC(=O)CCC(=O)N1Cc2ccccc2Oc2ncccc21 -12.3%
Cc1noc(C)c1S(=O)(=O)N1CCC(C(=O)N2CCN(c3cccc(C(F)(F)F)c3)CC2)CC1 -16.7%
CCOC(=O)c1c(C)[nH]c(CCC(=O)Nc2ccc(OC)c(OC)c2)c1C -9.8%
COc1ccc(OC)c(CCNC(=O)Cn2ncc3c([nH]c4ccccc43)c2=O)c1 -6.25%
Cc1ccccc1C(=O)n1nc(-c2cccnc2)nc1NCc1ccccc1 -11.5%
CCCCN(CC)CCCNC(=O)c1nn(C)c2c1CSc1ccccc1-2 -12.1%
CCn1cc(C(=O)N2CCN(c3cccc(C)c3C)CC2)c2cc(OC)c(OC)cc2c1=O -6.59%
NS(=O)(=O)c1ccc(NC(=O)C2Cc3ccccc3N2C(=O)c2ccccc2)cc1 (stereo not drawn) -10.5%
CCn1cc2nc(SCC(=O)Nc3ccccc3C(F)(F)F)n(Cc3ccc(C)cc3)c(=O)c2n1 2.01%
CC1Cc2ccccc2N1S(=O)(=O)c1nnc(NC(=O)c2ccccc2)s1 (stereo not drawn) -10.1%
COC(=O)c1nnn(CC(=O)NC(=O)Nc2c(C)cccc2C)c1C(=O)OC -9.13%
COc1ccc(C2CC(=O)c3cc(-c4nc(-c5ccc(Cl)cc5)cs4)c(=O)[nH]c3C2)cc1OC (stereo not drawn) -3.28%
COCCCNC(=O)CCC(=O)NNc1nc2ccccc2c2nc(C)nn12 -6.77%
COc1ccc(N2CC(NC(=O)C(c3ccccc3)c3ccccc3)CC2=O)cc1OC (stereo not drawn) -6.71%
CC(C)Oc1ccc(-c2nc3c(C#N)c[nH]n3c2NC2CCCCC2)cc1 -9.91%
COC(=O)c1ccc(C(=O)OC)c(NC(=O)c2ccc(-c3ccccc3)s2)c1 -11.9%
COc1cccc(-c2nc(S(=O)(=O)c3ccc(C)cc3)c(N3CCCCC3)o2)c1 -10%
